According to PubChem BioAssay (NCATS):
The shares of active, inactive and inconclusive entries below differ from those in the screen. For some assays here: Potencies of inconclusive entries are left out as doubtful fits. For some assays here: “Side channel” marks fits to a control or component signal instead of the main read-out. Activity calls are given as the source filed them. Unless noted, the call rests on the fitted dose curve; in most records, active means well fitted curve in the direction sought with a large enough effect; inconclusive means small, poorly fitted or top-dose-only effect, or another doubt; inactive means no such curve, though single readings can be large; an effect the other way counts as inactive or inconclusive.

Tests used:
[1] = molecular target: Phospholipid hydroperoxide glutathione peroxidase GPX4 (Homo sapiens) (UniProt P36969); assay: Primary qHTS Assay for Inhibitors of Recombinant Selenoprotein Glutathione Peroxidase 4 (GPX4) (AID 1845192); further: nearly all actives have a fitted effect of over 65% in size; further: potency means the concentration at half of the fitted maximal effect; on activity change, negative = inhibition: on the % scale 0 is the no-effect control and ±100 the full control effect
Procedure, shortened: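 GR-coupled assay: recombinant GPX4 preincubated 30 min with compound at room temperature; final 200 nM GPX4, 1 mM GSH, 0.5 mM cumene hydroperoxide, 0.5 mM NADPH, 100 nM GR, 0.01% BSA, pH 7.5 Tris. NADPH fluorescence (340/450 nm) read at 0 and 15 min.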

[2] = molecular target: Cytochrome P450 2D6 (Homo sapiens) (UniProt P10635); assay: qHTS for inhibitors of CYP2D6 against the NCATS DSHEA and TCM libraries (AID 1919972); further: potency means the concentration at half of the fitted maximal effect
Procedure, shortened: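 Luminescent P450-Glo read-out of CYP2D6 turnover of a luciferin substrate after NADPH-driven reaction of 30-45 min at room temperature. Compounds were first preincubated 15 min with enzyme at titrated concentrations; quinidine was the intraplate control.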

[3] = molecular target: Cytochrome P450 2C9 (Homo sapiens) (UniProt P11712); assay: qHTS for inhibitors of CYP2C9 against the NCATS DSHEA and TCM libraries (AID 1919973); further: potency means the concentration at half of the fitted maximal effect
Procedure, shortened: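 Luminescent P450-Glo format: compounds preincubated 15 min with enzyme and luciferin substrate, reaction run 30-45 min after NADPH regeneration solution. Intraplate controls: ketoconazole for CYP3A4 and CYP2C19, sulfaphenazole for CYP2C9.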

[4] = molecular target: Cytochrome P450 1A2 (Homo sapiens) (UniProt P05177); assay: qHTS for inhibitors of CYPIA2 against the NCATS DSHEA and TCM libraries (AID 1919976); further: potency means the concentration at half of the fitted maximal effect
Procedure, shortened: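 Human CYP1A2 with pro-luciferin substrate (typically 100 mM KPO4), 15 min preincubation with compound, then 1x NADPH regeneration for 30-45 min at room temperature in the dark. Luciferin quantified by luciferase luminescence; furafylline intraplate control.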

[5] = molecular target: Nuclear receptor subfamily 1 group I member 2 (Homo sapiens) (UniProt O75469); assay: Dual reporter qHTS for agonist of Pregnane X Receptor (hPXR) against the NCATS DSHEA and TCM libraries: Luminescence readout (AID 1920059); further: 0% is about no effect
Procedure, shortened: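 hPXR-Luc HepG2 cells, 2000/well in 5% charcoal-stripped FBS medium, attached 5 h, then exposed 24 h at 37C to compounds. Viability by CellTiter-Fluor, then luciferase luminescence with ONE-Glo.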

[6] = molecular target: Mitogen-activated protein kinase 10 (Mus musculus) (UniProt Q61831); assay: JNK3 AlphaScreen Assay (AID 530; active means well fitted curve in either direction with a large enough effect, not every such curve was filed as active; inconclusive means small, poorly fitted or top-dose-only effect, or another doubt;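 further: kinase came from lysate of stimulated human HepG2 cells; signal reports phosphorylation of biotinylated GST-cJun 1-79 at Ser73 with 10 µM ATP; on the % scale 0 is the no-effect control and ±100 the full control effect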); settings: JNK3 lysate, c-Jun phosphorylation; activity change, negative = inhibition: at 57.1 µM (top of the series)
Procedure, shortened: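 Pre-activated (IL-1β/TNFα) JNK3 in HepG2 lysates phosphorylates biotin-GST-cJun(1-79), 10 uM ATP; anti-phospho-cJun(Ser73) AlphaScreen read at room temperature, pH 7.6 Tris buffer. Compounds pre-incubated 15 min as titrations.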

[7] = Cell Viability - LYMP2-005 (AID 967);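 further: plate controls were DMSO only for no effect and 92 µM tetraoctylammonium bromide control for full effect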
Procedure, shortened: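 Human lymphoblastoid LYMP2-005 cells, 2,500 per well in complete medium, rested 5 h at 37C then compound-treated 24 h at 37C. Intracellular ATP read by CellTiter-Glo luminescence after 30 min at room temperature; AC50 from Hill-equation fits of concentration-response data.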

[8] = molecular target: Retinoic acid receptor RXR-alpha (Homo sapiens) (UniProt P19793); assay: qHTS assay for small molecule agonists of retinoid X receptor alpha signaling (AID 588544; calls by dose curve;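 further: 0% = DMSO basal wells and 100% = reference agonist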); settings: HEK293T RXRa-UAS-bla, beta-lactamase reporter, 18 h; activation: at 76.7 µM (top of the series) unless noted
[9] = molecular target: Retinoic acid receptor RXR-alpha (Homo sapiens) (UniProt P19793); assay: qHTS assay for small molecule antagonists of retinoid X receptor alpha signaling (AID 588546; active means well fitted inhibition curve with a large enough effect in the signal ratio, with a control signal flat, not every such curve was filed as active; inconclusive means small, poorly fitted or top-dose-only effect, or effect the other way, or a change in a side signal; inactive means no such curve, though single readings can be large or run the other way; the % refers to the signal ratio;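 further: cells stimulated with 9-cis-retinoic acid as agonist; on the % scale 0 is the no-effect control and ±100 the full control effect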); settings: HEK293T RXRa-UAS-bla, beta-lactamase ratio, antagonist mode
Procedure, shortened: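 Beta-lactamase reporter inhibition, read as CCF4 fluorescence ratio (ex 405, em 460/530 nm) after 2 h at RT. HEK293T UAS-bla cells, 2500/well, were stimulated with 9-cis-RA at 500 or 100 nM final alongside test compound for 18 h at 37 C.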

[10] = molecular target: Thyroid hormone receptor beta (Homo sapiens) (UniProt P10828); assay: qHTS assay for small molecule antagonists of thyroid hormone receptor beta signaling (AID 588547; active means well fitted inhibition curve with a large enough effect in the signal ratio, with a control signal flat, not every such curve was filed as active; inconclusive means small, poorly fitted or top-dose-only effect, or effect the other way, or a change in a side signal; the % refers to the signal ratio; further: potency means the concentration at half of the fitted maximal effect); settings: TR-UAS-bla HEK293, beta-lactamase ratio, antagonist mode, 18 h
Procedure, shortened: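 TR-UAS-bla GripTite HEK293 cells in 2% charcoal/dextran FBS medium; compounds 0.59 nM to 92 uM with T3 at 0.4nM final, 18 h at 37 C. Beta-lactamase read by CCF4 fluorescence (460/530 nm); Hill fits gave IC50 and efficacy.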

[11] = qHTS assay for small molecule agonists of the antioxidant response element (ARE) signaling pathway (AID 651741; active means well fitted activation curve with a large enough effect in the signal ratio; inconclusive means small, poorly fitted or top-dose-only effect, or effect the other way, or a change in a side signal; the % refers to the signal ratio; further: % of control where 0% means no effect); settings: HepG2 ARE-bla reporter, beta-lactamase FRET ratio, 16 h; activation: at 96 µM (top of the series) unless noted
Procedure, shortened: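 CellSensor ARE-bla HepG2 cells (2,000/well) carrying ARE-driven beta-lactamase, exposed 16 h at 37 C. LiveBLAzer B/G FRET substrate added for 2 h at room temperature; fluorescence intensity read.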

[12] = qHTS assay to identify small molecules that stimulate interleukin-8 (IL-8) secretion (AID 651758; active means well fitted activation curve with a large enough effect in the signal ratio; inconclusive means small, poorly fitted or top-dose-only effect, or effect the other way, or a change in a side signal; the % refers to the signal ratio; further: 0% is about no effect); settings: HTRF ratio (665/615); activation: at 92.2 µM (top of the series)
Procedure, shortened: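 THP-1 cells (2000/well) exposed to compound 16 h at 37 C; secreted IL-8 then detected by HTRF with cryptate- and XL665-labelled anti-IL-8 antibody pair after 1-3 h at room temperature.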

[13] = molecular target: Nuclear receptor ROR-gamma (Homo sapiens) (UniProt P51449); assay: qHTS assay for small molecule antagonists of the retinoid-related orphan receptor gamma (ROR-gamma) signaling pathway (AID 651802);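 further: luciferase reporter luminescence driven by ROR response element; on the % scale 0 is the no-effect control and ±100 the full control effect; nearly all actives have a fitted effect of over 60% in size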
Procedure, shortened: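 CHO cells with TET-inducible ROR-gamma and RORE-luciferase reporter, dosed then doxycycline-induced. After 16 h at 37C, One-Glo luminescence read; decreased signal indicates antagonism.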

C2A = assay: qHTS profiling for inhibitors of Plasmodium falciparum proliferation (AID 504749);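 further: 0% = DMSO vehicle and full inhibition = artemisinin control; nearly all actives have a fitted effect of over 60% in size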; settings: P. falciparum in erythrocytes, SYBR Green DNA, 72 h; series mostly up to 28.7 µM
Procedure, shortened: (§1)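 P. falciparum-infected erythrocytes (0.3% parasitemia, 2.5% hematocrit) incubated with compound 72 h at 37 C, 5% CO2. Parasite DNA detected by SYBR Green after lysis, overnight at room temperature; normalised to 0.29 uM artemisinin and DMSO.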

CP256 = assay: as above; settings: P. falciparum in erythrocytes, SYBR Green DNA, 72 h; series mostly up to 28.7 µM
Procedure, shortened: as §1

CP260 = assay: as above; settings: P. falciparum in erythrocytes, SYBR Green DNA, 72 h; series mostly up to 28.7 µM
Procedure, shortened: as §1

DIV17 = assay: as above; settings: P. falciparum in erythrocytes, SYBR Green DNA, 72 h; activity, negative = inhibition: at 28.7 µM (top of the series) unless noted
Procedure, shortened: as §1

TAB109 = assay: as above; settings: P. falciparum in erythrocytes, SYBR Green DNA, 72 h; series mostly up to 28.7 µM
Procedure, shortened: as §1
Tags describe the fitted curve by direction and shape or compound fluorescence and quenching.

UniProt P36969, sequence (P36969 whole entry, looked up): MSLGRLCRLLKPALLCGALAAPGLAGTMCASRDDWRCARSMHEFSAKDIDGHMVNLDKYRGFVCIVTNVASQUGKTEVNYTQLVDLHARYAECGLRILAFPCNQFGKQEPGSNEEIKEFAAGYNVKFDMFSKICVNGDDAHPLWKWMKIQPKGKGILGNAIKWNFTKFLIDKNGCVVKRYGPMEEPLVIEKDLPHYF
UniProt P19793, sequence (P19793 whole entry, looked up): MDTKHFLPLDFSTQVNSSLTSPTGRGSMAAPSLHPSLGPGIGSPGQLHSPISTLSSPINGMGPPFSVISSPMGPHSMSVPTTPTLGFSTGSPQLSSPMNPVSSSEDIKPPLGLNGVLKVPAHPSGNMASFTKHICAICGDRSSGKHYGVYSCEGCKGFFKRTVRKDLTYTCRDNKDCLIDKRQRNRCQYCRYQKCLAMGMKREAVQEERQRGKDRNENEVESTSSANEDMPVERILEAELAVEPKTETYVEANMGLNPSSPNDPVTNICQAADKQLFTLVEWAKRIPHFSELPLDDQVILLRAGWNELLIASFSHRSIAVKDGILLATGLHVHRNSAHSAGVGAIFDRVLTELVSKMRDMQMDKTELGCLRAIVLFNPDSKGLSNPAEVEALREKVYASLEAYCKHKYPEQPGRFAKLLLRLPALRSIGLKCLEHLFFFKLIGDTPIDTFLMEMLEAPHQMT
UniProt P10828, sequence (P10828 whole entry, looked up): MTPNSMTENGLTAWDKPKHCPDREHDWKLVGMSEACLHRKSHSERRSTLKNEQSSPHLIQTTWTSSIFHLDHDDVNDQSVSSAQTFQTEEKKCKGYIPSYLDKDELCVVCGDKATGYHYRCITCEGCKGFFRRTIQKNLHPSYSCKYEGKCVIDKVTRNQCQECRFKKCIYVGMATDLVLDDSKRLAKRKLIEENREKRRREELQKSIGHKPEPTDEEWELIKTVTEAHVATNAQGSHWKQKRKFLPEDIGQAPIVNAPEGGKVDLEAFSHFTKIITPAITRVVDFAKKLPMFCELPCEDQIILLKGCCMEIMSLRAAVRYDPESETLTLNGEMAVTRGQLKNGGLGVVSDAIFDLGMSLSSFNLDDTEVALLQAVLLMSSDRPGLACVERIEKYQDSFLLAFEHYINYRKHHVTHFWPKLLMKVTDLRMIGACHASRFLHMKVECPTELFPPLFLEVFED
UniProt O75469, sequence (O75469 whole entry, looked up): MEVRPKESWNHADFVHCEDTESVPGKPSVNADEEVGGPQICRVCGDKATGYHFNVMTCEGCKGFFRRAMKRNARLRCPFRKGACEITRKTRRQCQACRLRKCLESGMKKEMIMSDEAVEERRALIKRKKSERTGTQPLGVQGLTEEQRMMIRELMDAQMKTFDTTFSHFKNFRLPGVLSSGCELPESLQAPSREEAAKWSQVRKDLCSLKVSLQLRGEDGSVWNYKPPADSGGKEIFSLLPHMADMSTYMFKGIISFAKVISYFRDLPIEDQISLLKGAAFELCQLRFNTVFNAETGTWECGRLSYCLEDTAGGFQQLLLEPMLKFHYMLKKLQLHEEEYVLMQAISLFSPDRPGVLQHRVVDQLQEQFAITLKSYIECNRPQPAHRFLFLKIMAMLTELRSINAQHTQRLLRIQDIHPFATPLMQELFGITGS
UniProt P05177, sequence (P05177 whole entry, looked up): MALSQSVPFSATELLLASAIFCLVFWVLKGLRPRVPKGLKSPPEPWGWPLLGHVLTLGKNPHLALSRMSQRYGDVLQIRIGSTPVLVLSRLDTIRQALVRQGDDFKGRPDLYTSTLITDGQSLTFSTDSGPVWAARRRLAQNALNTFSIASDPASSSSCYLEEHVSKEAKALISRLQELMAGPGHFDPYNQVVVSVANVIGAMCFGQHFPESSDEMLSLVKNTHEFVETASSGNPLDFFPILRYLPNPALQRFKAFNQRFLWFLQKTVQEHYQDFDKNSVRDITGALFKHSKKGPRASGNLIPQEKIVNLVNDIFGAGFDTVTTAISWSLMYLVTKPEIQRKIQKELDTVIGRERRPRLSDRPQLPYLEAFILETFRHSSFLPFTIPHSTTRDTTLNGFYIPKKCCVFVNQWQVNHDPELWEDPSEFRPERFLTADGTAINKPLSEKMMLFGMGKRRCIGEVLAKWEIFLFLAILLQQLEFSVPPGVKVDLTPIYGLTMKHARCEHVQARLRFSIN
UniProt P11712, sequence (P11712 whole entry, looked up): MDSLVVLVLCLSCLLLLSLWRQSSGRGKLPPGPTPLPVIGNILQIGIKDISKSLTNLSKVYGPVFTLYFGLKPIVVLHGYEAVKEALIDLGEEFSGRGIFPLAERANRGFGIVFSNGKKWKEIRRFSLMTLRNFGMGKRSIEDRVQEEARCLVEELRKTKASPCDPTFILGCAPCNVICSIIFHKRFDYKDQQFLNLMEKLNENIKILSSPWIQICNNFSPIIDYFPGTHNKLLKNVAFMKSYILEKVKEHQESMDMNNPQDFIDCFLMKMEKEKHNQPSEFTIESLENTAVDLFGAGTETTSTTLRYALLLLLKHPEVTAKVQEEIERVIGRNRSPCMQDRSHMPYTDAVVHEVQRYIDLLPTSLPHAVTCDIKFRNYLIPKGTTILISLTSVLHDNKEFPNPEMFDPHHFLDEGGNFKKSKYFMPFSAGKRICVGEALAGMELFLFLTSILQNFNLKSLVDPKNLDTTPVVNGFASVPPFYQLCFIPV
UniProt P10635, sequence (P10635 whole entry, looked up): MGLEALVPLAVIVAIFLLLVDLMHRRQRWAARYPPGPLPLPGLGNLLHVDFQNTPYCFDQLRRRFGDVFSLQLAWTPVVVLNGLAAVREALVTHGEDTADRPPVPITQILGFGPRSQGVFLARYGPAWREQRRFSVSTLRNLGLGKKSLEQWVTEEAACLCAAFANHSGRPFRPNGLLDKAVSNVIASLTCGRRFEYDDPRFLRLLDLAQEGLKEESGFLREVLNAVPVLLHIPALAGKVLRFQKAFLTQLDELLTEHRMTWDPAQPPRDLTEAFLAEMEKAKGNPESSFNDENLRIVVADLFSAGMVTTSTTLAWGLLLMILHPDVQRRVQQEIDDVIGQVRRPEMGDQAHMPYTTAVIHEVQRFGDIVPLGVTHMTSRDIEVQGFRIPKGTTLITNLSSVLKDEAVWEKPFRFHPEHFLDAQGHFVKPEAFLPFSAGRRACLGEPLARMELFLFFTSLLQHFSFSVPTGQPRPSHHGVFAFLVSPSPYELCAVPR
UniProt P51449, sequence (P51449 whole entry, looked up): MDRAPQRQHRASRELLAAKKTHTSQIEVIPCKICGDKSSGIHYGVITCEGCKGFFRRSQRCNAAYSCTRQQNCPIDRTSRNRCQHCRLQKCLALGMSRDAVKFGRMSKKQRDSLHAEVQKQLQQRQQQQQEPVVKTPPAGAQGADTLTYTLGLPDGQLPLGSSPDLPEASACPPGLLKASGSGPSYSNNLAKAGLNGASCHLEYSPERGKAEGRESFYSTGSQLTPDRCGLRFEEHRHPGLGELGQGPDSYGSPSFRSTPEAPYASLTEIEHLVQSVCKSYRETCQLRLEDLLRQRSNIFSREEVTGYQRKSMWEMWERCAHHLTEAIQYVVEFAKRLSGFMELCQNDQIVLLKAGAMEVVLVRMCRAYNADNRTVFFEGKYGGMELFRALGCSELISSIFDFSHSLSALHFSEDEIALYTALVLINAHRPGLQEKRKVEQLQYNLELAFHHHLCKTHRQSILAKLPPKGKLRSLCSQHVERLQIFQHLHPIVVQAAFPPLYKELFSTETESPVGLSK

**Q.** Which Potency [1] does the source give for `CCCCC/C=C/C/C=C/CCCCCCCC(=O)O` here?
**A.** Its Potency is active: 4.47 µM.

**Q.** And the Potency [2]?
**A.** The Potency was inconclusive [inhibitor, partial curve, poor fit].

**Q.** What about the Potency [3] of the same molecule?
**A.** Its Potency is active: 12.6 µM.

**Q.** And the Potency [4]?
**A.** The Potency was inconclusive [inhibitor, single point].

**Q.** And the Potency [5]?
**A.** Its Potency is “inactive”.

**Q.** For `CS(=O)(=O)n1cc2c(n1)CN([C@H]1CO[C@H](c3cc(F)ccc3F)[C@@H](N)C1)C2`, which Potency [1] is on record?
**A.** Its Potency is inconclusive [inhibitor, partial curve].

**Q.** For `NC(=O)C1(N2CCCCC2)CCN(CCCN2c3ccccc3CCc3ccccc32)CC1`, which Potency [1] is on record?
**A.** The Potency was inconclusive [inhibitor, partial curve].

**Q.** Which Potency [1] does the source give for `[2H]C([2H])([2H])C(CCC[C@@H](C)[C@H]1CC[C@H]2/C(=C/C=C3\C[C@@H](O)C[C@H](O)C3=C)CCC[C@]12C)C([2H])([2H])[2H]` here?
**A.** The Potency was active: 14.1 µM.

**Q.** With `O=S(=O)(O)c1ccccc1` as the molecule, how does the Potency [6] read?
**A.** Its Potency is “inactive”.

**Q.** What about the Potency [7] of the same molecule?
**A.** Its Potency is “inactive”.

**Q.** What about the Potency [8] of the same molecule?
**A.** Its Potency is “inactive”.

**Q.** And the max response [9]?
**A.** Its max response is inactive: -0.701%.

**Q.** What about the Potency [10] of the same molecule?
**A.** Its Potency is inconclusive [side channel, falling, full curve, poor fit].

**Q.** What about the Potency [11] of the same molecule?
**A.** Its Potency is “inactive”.

**Q.** What about the activation [12] of the same molecule?
**A.** Its activation is inconclusive: 20.5%.

**Q.** And the Potency [13]?
**A.** The Potency was “inactive”.

**Q.** And the Potency [1]?
**A.** Its Potency is “inactive”.

**Q.** Which Potency [1] does the source give for `CCCCCCCCCCCCCCCC(=O)OCC(O)C1OC(=O)C(O)=C1O` (configuration not stated) here?
**A.** The Potency was active: 7.08 µM.

**Q.** With `O=C(O)C1CCc2cc(C3CCCCC3)c(Cl)cc21` (configuration not stated) as the molecule, how does the Potency [1] read?
**A.** Its Potency is inconclusive [inhibitor, single point].

**Q.** With `CN1C(=O)[C@]23C[C@H]4C(C)(C)[C@]5(CNc6c5ccc5c6OC=CC(C)(C)O5)C[C@@]41CN2CC[C@@]3(C)O` as the molecule, how does the Potency [1] read?
**A.** Its Potency is inconclusive [inhibitor, partial curve].

**Q.** For `O=C(O)CCNc1cc(N2CCc3ccccc3CC2)nc(-c2cccnc2)n1`, which Potency [1] is on record?
**A.** Its Potency is inconclusive [inhibitor, single point].

**Q.** For `CCCCC(=O)N(Cc1ccc(-c2ccccc2-c2nn[nH]n2)cc1)[C@H](C(=O)O)C(C)C`, which Potency [1] is on record?
**A.** The Potency was inconclusive [inhibitor, partial curve].

**Q.** Which Potency [1] does the source give for `CCN(CC)CCS(=O)(=O)[C@@H]1CCN2C(=O)c3coc(n3)CC(=O)C[C@H](O)/C=C(C)/C=C/CNC(=O)/C=C/[C@@H](C)[C@@H](C(C)C)OC(=O)[C@@H]12` here?
**A.** Its Potency is active: 6.31 µM.

**Q.** For `CCCCCCO[C@@H](C)c1cccc(-c2csc(NC(=O)c3cc(Cl)c(/C=C(\C)C(=O)O)c(Cl)c3)n2)c1OC`, which Potency [1] is on record?
**A.** Its Potency is active: 2.51 µM.

**Q.** With `CC(C)CN(C[C@@H](OP(=O)(O)O)[C@H](Cc1ccccc1)NC(=O)O[C@@H]1CCOC1)S(=O)(=O)c1ccc(N)cc1` as the molecule, how does the Potency [1] read?
**A.** Its Potency is inconclusive [inhibitor, partial curve, poor fit].

**Q.** What about the Potency (C2A) of the same molecule?
**A.** Its Potency is “inactive”.

**Q.** What about the Potency (CP256) of the same molecule?
**A.** The Potency was “inactive”.

**Q.** And the Potency (CP260)?
**A.** The Potency was “inactive”.

**Q.** And the Potency (DIV17)?
**A.** Its Potency is “inactive”.

**Q.** What about the Potency (TAB109) of the same molecule?
**A.** Its Potency is “inactive”.

**Q.** With `CC1=CC(O)CC(C)(C)C1/C=C/C(C)=C/C=C/C(C)=C/C=C/C=C(C)/C=C/C=C(C)/C=C/C1=C(C)CC(O)CC1(C)C` (configuration not stated) as the molecule, how does the Potency [1] read?
**A.** The Potency was active: 12.6 µM.

**Q.** With `CCCCCCCCCC(=O)OCCN1CCN(CC/C=C2\c3ccccc3Sc3ccc(C(F)(F)F)cc32)CC1` as the molecule, how does the Potency [1] read?
**A.** The Potency was inconclusive [inhibitor, partial curve].
